Measurements from patent US9873709B2 (priority 2013, dated 2018).

target: isolated recombinant JAK1 kinase domain (Homo sapiens (Human), UniProt P23458); settings: read-out: JAK1 Ki; isolated recombinant JAK1 kinase domain, 25 μM ATP
Sequence (P23458 875-1153): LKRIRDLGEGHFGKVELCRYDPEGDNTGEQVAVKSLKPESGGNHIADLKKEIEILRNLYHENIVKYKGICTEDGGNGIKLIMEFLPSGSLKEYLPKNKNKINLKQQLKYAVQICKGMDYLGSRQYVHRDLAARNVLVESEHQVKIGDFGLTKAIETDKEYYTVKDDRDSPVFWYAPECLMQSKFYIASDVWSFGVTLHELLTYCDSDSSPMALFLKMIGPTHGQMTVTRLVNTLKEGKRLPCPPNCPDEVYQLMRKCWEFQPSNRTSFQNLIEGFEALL

pKi	Structure (SMILES)
9.17	NCC1CCCN1C(=O)c1ccc(Nc2nc3c(C4=CCN(C(=O)CCC(F)(F)F)CC4)cccn3n2)cc1 (centres unmarked) [Example 2-80, 1-[4-[2-[4-[2-(aminomethyl)pyrrolidine-1-carbonyl]anilino]-[1,2,4]triazolo[1,5-a]pyridin-8-yl]-3,6-dihydro-2H-pyridin-1-yl]-4,4,4-trifluoro-butan-1-one]
8.80	O=C(CCC(F)(F)F)N1CC=C(c2cccn3nc(Nc4ccc(C(=O)N5CC6(CCNCC6)C5)cc4)nc23)CC1 [Example 2-81, 1-[4-[2-[4-(2,7-diazaspiro[3.5]nonane-2-carbonyl)anilino]-[1,2,4]triazolo[1,5-a]pyridin-8-yl]-3,6-dihydro-2H-pyridin-1-yl]-4,4,4-trifluoro-butan-1-one]
8.85	O=C(CCC(F)(F)F)N1CC=C(c2cccn3nc(Nc4ccc(C(=O)N5CCOC6(CCCNC6)C5)cc4)nc23)CC1 (centres unmarked) [Example 2-82, 4,4,4-trifluoro-1-[4-[2-[4-(1-oxa-4,8-diazaspiro[5.5]undecane-4-carbonyl)anilino]-[1,2,4]triazolo[1,5-a]pyridin-8-yl]-3,6-dihydro-2H-pyridin-1-yl]butan-1-one]
8.90	O=C(NCC1CCC2(CCNCC2)O1)c1ccc(Nc2nc3c(C4=CCN(C(=O)CCC(F)(F)F)CC4)cccn3n2)cc1 (centres unmarked) [Example 2-83, N-(1-oxa-8-azaspiro[4.5]decan-2-ylmethyl)-4-[[8-[1-(4,4,4-trifluorobutanoyl)-3,6-dihydro-2H-pyridin-4-yl]-[1,2,4]triazolo[1,5-a]pyridin-2-yl]amino]benzamide]
9.03	O=C(NCC1CCNCC1)c1ccc(Nc2nc3c(C4=CCN(C(=O)CCC(F)(F)F)CC4)cccn3n2)cc1 [Example 2-84, N-(4-piperidylmethyl)-4-[[8-[1-(4,4,4-trifluorobutanoyl)-3,6-dihydro-2H-pyridin-4-yl]-[1,2,4]triazolo[1,5-a]pyridin-2-yl]amino]benzamide]
9.29	CNC1CCN(C(=O)c2ccc(Nc3nc4c(C5=CCN(C(=O)CCC(F)(F)F)CC5)cccn4n3)cc2)C1 (centres unmarked) [Example 2-85, 4,4,4-trifluoro-1-[4-[2-[4-[3-(methylamino)pyrrolidine-1-carbonyl]anilino]-[1,2,4]triazolo[1,5-a]pyridin-8-yl]-3,6-dihydro-2H-pyridin-1-yl]butan-1-one]
8.80	O=C(NCCC1CCNCC1)c1ccc(Nc2nc3c(C4=CCN(C(=O)CCC(F)(F)F)CC4)cccn3n2)cc1 [Example 2-86, N-[2-(4-piperidyl)ethyl]-4-[[8-[1-(4,4,4-trifluorobutanoyl)-3,6-dihydro-2H-pyridin-4-yl]-[1,2,4]triazolo[1,5-a]pyridin-2-yl]amino]benzamide]
8.83	CN1CC2CN(C(=O)c3ccc(Nc4nc5c(C6=CCN(C(=O)CCC(F)(F)F)CC6)cccn5n4)cc3)CC2C1 (centres unmarked) [Example 2-87, 4,4,4-trifluoro-1-[4-[2-[4-(2-methyl-1,3,3a,4,6,6a-hexahydropyrrolo[3,4-c]pyrrole-5-carbonyl)anilino]-[1,2,4]triazolo[1,5-a]pyridin-8-yl]-3,6-dihydro-2H-pyridin-1-yl]butan-1-one]
8.65	CN(C)CCC1CCCN(C(=O)c2ccc(Nc3nc4c(C5=CCN(C(=O)CCC(F)(F)F)CC5)cccn4n3)cc2)C1 (centres unmarked) [Example 2-88, 1-[4-[2-[4-[3-[2-(dimethylamino)ethyl]piperidine-1-carbonyl]anilino]-[1,2,4]triazolo[1,5-a]pyridin-8-yl]-3,6-dihydro-2H-pyridin-1-yl]-4,4,4-trifluoro-butan-1-one]
8.66	CN(C)CC1(O)CCCN(C(=O)c2ccc(Nc3nc4c(C5=CCN(C(=O)CCC(F)(F)F)CC5)cccn4n3)cc2)CC1 (centres unmarked) [Example 2-89, 1-[4-[2-[4-[4-[(dimethylamino)methyl]-4-hydroxy-azepane-1-carbonyl]anilino]-[1,2,4]triazolo[1,5-a]pyridin-8-yl]-3,6-dihydro-2H-pyridin-1-yl]-4,4,4-trifluoro-butan-1-one]
8.52	Cc1nc(C2CCCN(C(=O)c3ccc(Nc4nc5c(C6=CCN(C(=O)CCC(F)(F)F)CC6)cccn5n4)cc3)C2)cc(N(C)C)n1 (centres unmarked) [Example 2-90, 1-[4-[2-[4-[3-[6-(dimethylamino)-2-methyl-pyrimidin-4-yl]piperidine-1-carbonyl]anilino]-[1,2,4]triazolo[1,5-a]pyridin-8-yl]-3,6-dihydro-2H-pyridin-1-yl]-4,4,4-trifluoro-butan-1-one]
8.44	CN(C)c1cccc(C2CCN(C(=O)c3ccc(Nc4nc5c(C6=CCN(C(=O)CCC(F)(F)F)CC6)cccn5n4)cc3)CC2)n1 [Example 2-91, 1-[4-[2-[4-[4-[6-(dimethylamino)-2-pyridyl]piperidine-1-carbonyl]anilino]-[1,2,4]triazolo[1,5-a]pyridin-8-yl]-3,6-dihydro-2H-pyridin-1-yl]-4,4,4-trifluoro-butan-1-one]
9.36	Cc1cc(N(C)C)cc(C2CCCN2C(=O)c2ccc(Nc3nc4c(C5=CCN(C(=O)CCC(F)(F)F)CC5)cccn4n3)cc2)n1 (centres unmarked) [Example 2-92, 1-[4-[2-[4-[2-[4-(dimethylamino)-6-methyl-2-pyridyl]pyrrolidine-1-carbonyl]anilino]-[1,2,4]triazolo[1,5-a]pyridin-8-yl]-3,6-dihydro-2H-pyridin-1-yl]-4,4,4-trifluoro-butan-1-one]
8.90	CN1CCCC2(CCCN(C(=O)c3ccc(Nc4nc5c(C6=CCN(C(=O)CCC(F)(F)F)CC6)cccn5n4)cc3)C2)C1 (centres unmarked) [Example 2-93, 4,4,4-trifluoro-1-[4-[2-[4-(8-methyl-2,8-diazaspiro[5.5]undecane-2-carbonyl)anilino]-[1,2,4]triazolo[1,5-a]pyridin-8-yl]-3,6-dihydro-2H-pyridin-1-yl]butan-1-one]
8.77	CCOC(=O)N1CC=C(c2cccn3nc(Nc4ccc(C(=O)OC5CCN(C)CC5)cc4)nc23)CC1 [Example 2-94, ethyl 4-[2-[4-[(1-methyl-4-piperidyl)oxycarbonyl]anilino]-[1,2,4]triazolo[1,5-a]pyridin-8-yl]-3,6-dihydro-2H-pyridine-1-carboxylate]
9.12	O=C(CCC(F)(F)F)N1CC=C(c2cccn3nc(Nc4ccc(C(=O)N5CCN(Cc6ccccn6)CC5)cc4)nc23)CC1 [Example 2-95, 4,4,4-trifluoro-1-[4-[2-[4-[4-(2-pyridylmethyl)piperazine-1-carbonyl]anilino]-[1,2,4]triazolo[1,5-a]pyridin-8-yl]-3,6-dihydro-2H-pyridin-1-yl]butan-1-one]
9.17	CN(CCc1ccncc1)C(=O)c1ccc(Nc2nc3c(C4=CCN(C(=O)CCC(F)(F)F)CC4)cccn3n2)cc1 [Example 2-96, N-methyl-N-[2-(4-pyridyl)ethyl]-4-[[8-[1-(4,4,4-trifluorobutanoyl)-3,6-dihydro-2H-pyridin-4-yl]-[1,2,4]triazolo[1,5-a]pyridin-2-yl]amino]benzamide]
8.97	CN(C)C1CCN(C(=O)c2ccc(Nc3nc4c(C5=CCN(C(=O)CCC(F)(F)F)CC5)cccn4n3)cc2)CC1 [Example 2-97, 1-[4-[2-[4-[4-(dimethylamino)piperidine-1-carbonyl]anilino]-[1,2,4]triazolo[1,5-a]pyridin-8-yl]-3,6-dihydro-2H-pyridin-1-yl]-4,4,4-trifluoro-butan-1-one]
8.95	CN1CCN(C(=O)c2ccc(Nc3nc4c(C5=CCN(C(=O)CCC(F)(F)F)CC5)cccn4n3)cc2)CC1 [Example 2-98, 4,4,4-trifluoro-1-[4-[2-[4-(4-methylpiperazine-1-carbonyl)anilino]-[1,2,4]triazolo[1,5-a]pyridin-8-yl]-3,6-dihydro-2H-pyridin-1-yl]butan-1-one]
9.24	CN1CCN(CCCNC(=O)c2ccc(Nc3nc4c(C5=CCN(C(=O)CCC(F)(F)F)CC5)cccn4n3)cc2)CC1 [Example 2-99, N-[3-(4-methylpiperazin-1-yl)propyl]-4-[[8-[1-(4,4,4-trifluorobutanoyl)-3,6-dihydro-2H-pyridin-4-yl]-[1,2,4]triazolo[1,5-a]pyridin-2-yl]amino]benzamide]
9.09	CC1CCCN(CCNC(=O)c2ccc(Nc3nc4c(C5=CCN(C(=O)CCC(F)(F)F)CC5)cccn4n3)cc2)C1 (centres unmarked) [Example 2-101, N-[2-(3-methyl-1-piperidyl)ethyl]-4-[[8-[1-(4,4,4-trifluorobutanoyl)-3,6-dihydro-2H-pyridin-4-yl]-[1,2,4]triazolo[1,5-a]pyridin-2-yl]amino]benzamide]
9.08	CN(C)CCN1CCN(C(=O)c2ccc(Nc3nc4c(C5=CCN(C(=O)CCC(F)(F)F)CC5)cccn4n3)cc2)CC1 [Example 2-102, 1-[4-[2-[4-[4-[2-(dimethylamino)ethyl]piperazine-1-carbonyl]anilino]-[1,2,4]triazolo[1,5-a]pyridin-8-yl]-3,6-dihydro-2H-pyridin-1-yl]-4,4,4-trifluoro-butan-1-one]
8.57	O=C(CCC(F)(F)F)N1CC=C(c2cccn3nc(Nc4ccc(C(=O)N5CCCC(c6cc7cccnc7[nH]6)C5)cc4)nc23)CC1 (centres unmarked) [Example 2-103, 4,4,4-trifluoro-1-[4-[2-[4-[3-(1H-pyrrolo[2,3-b]pyridin-2-yl)piperidine-1-carbonyl]anilino]-[1,2,4]triazolo[1,5-a]pyridin-8-yl]-3,6-dihydro-2H-pyridin-1-yl]butan-1-one]
8.71	CN(Cc1ccccc1-c1cccnc1)C(=O)c1ccc(Nc2nc3c(C4=CCN(C(=O)CCC(F)(F)F)CC4)cccn3n2)cc1 [Example 2-104, N-methyl-N-[[2-(3-pyridyl)phenyl]methyl]-4-[[8-[1-(4,4,4-trifluorobutanoyl)-3,6-dihydro-2H-pyridin-4-yl]-[1,2,4]triazolo[1,5-a]pyridin-2-yl]amino]benzamide]
8.12	CN1CCC(N(C)C(=O)c2ccc(Nc3nc4c(C5=CCN(C(=O)C6CCOCC6)CC5)cccn4n3)cc2)CC1 [Example 2-105, N-methyl-N-(1-methyl-4-piperidyl)-4-[[8-[1-(tetrahydropyran-4-carbonyl)-3,6-dihydro-2H-pyridin-4-yl]-[1,2,4]triazolo[1,5-a]pyridin-2-yl]amino]benzamide]
7.41	CNC(=O)N1CC=C(c2cccn3nc(Nc4ccc(C(=O)N(C)C5CCN(C)CC5)cc4)nc23)CC1 [Example 2-106, N-methyl-4-[2-[4-[methyl-(1-methyl-4-piperidyl)carbamoyl]anilino]-[1,2,4]triazolo[1,5-a]pyridin-8-yl]-3,6-dihydro-2H-pyridine-1-carboxamide; hydrochloride]

pKi: −log10 of the molar value. Counter-ions that a name gives are not always drawn.
